Measured values as given in the supplement of paper PMC11369174, “Proteome-scale characterisation of motif-based interactome rewiring by disease mutations” (Molecular Systems Biology, 2024).
Numbering of substitutions follows the chain as printed. Names and notes keep the numbering of the source. The list shows a part of the results. The data scatter; read single values as rough.

How the values were obtained:
Experiment in all cases: mutation enrichment score (mutant vs wild-type peptide binding to bait); baits are purified protein domains named by gene / domain / UniProt id / residues; peptides come from disordered regions of human proteins; higher = mutation enhances binding relative to wild type
[1] = biological target: GABARAPL1_ATG8__Q9H0R8_2_115; details: wild-type window: …
[2] = biological target: MAP1LC3B_ATG8__Q9GZQ8_2_119; details: wild-type window: …
[3] = biological target: T1, PEX14_Pex14__O75381_16_84; details: number of wild-type / mutant comparisons summed (bounds the score): 12; paper call: no_effect; wild-type window: …
T1 chain: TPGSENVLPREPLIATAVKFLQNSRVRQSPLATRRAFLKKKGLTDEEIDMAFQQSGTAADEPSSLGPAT

[4] = biological target: GABARAPL2_ATG8__P60520_2_115; details: number of wild-type / mutant comparisons summed (bounds the score): 6, wild-type window: …
[5] = biological target: GABARAP_ATG8__O95166_2_115; details: paper call: no_effect, wild-type window: …
[6] = biological target: T2, G3BP2_NTF2_1_Q9UN86_1_139; details: wild-type window: …
T2 chain: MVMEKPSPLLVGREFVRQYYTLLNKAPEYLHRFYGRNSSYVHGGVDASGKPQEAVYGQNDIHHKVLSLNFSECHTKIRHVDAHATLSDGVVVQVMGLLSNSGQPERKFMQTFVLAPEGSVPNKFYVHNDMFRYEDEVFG

[7] = biological target: MAP1LC3A_ATG8__Q9H492_2_121; details: wild-type window: …
[8] = biological target: T3, ZMYND11_coiled-coil-MYND__Q15326_480_602; details: number of wild-type / mutant comparisons summed (bounds the score): 12; paper call: no_effect; wild-type window: …
T3 chain: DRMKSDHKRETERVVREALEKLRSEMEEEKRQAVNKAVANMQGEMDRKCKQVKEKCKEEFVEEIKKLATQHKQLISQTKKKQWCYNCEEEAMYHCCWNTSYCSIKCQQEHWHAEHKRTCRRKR

[9] = number of wild-type / mutant comparisons summed (bounds the score): 6, paper call: no_effect
[10] = number of wild-type / mutant comparisons summed (bounds the score): 6, paper call: enhanced
[11] = number of wild-type / mutant comparisons summed (bounds the score): 6
[12] = number of wild-type / mutant comparisons summed (bounds the score): 12, paper call: no_effect
[13] = number of wild-type / mutant comparisons summed (bounds the score): 12, paper call: diminished
[14] = number of wild-type / mutant comparisons summed (bounds the score): 18, paper call: no_effect
[15] = number of wild-type / mutant comparisons summed (bounds the score): 6, paper call: diminished

Chain of GABARAP_ATG8__O95166_2_115 (chain, as listed by the source): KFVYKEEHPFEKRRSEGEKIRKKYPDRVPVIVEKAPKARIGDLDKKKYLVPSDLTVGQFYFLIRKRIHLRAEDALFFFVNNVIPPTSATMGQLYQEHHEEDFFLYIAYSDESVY
Chain of GABARAPL2_ATG8__P60520_2_115 (chain, as listed by the source): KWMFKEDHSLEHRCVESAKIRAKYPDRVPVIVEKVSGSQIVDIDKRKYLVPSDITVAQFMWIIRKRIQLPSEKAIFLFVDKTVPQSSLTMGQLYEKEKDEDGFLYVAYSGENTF

B1: D554N D554N (peptide)
chain: DEELAVDLEALVSKAEEEFFNIIFAELKKKEADAIKLTPVP
For B1, the mutation enrichment score [1, 9] was 5, the mutation enrichment score [2, 9] was 1 and the mutation enrichment score [3] was 3.3.

B2: A76E A76E (peptide)
chain: GEPDLKKESEEDKFPVCIREEVSQVLKGYDWTLVPMPVRVN
In the case of B2, the mutation enrichment score [1, 10] is reported as 6, the mutation enrichment score ([4]; paper call: enhanced) is reported as 6 and the mutation enrichment score [5, 11] is reported as 3.

B3: S125L S125L (peptide)
chain: RFPFYRENKQGWQNSIRHNLLLNECFVKVPRDDKKPGKGSY
Work on B3 yielded a mutation enrichment score [1, 9] of 0.31.

B4: K15I K15I (peptide)
chain: MFPSPALTPTPFSVKDILNLIQQQRSLAAAGELSA
In the case of B4, the mutation enrichment score [6, 12] is reported as 0.

B5: A8505T A8505T (peptide)
chain: ANAGKYTCQIKNDAGMQECFTTLSVLEPATIVEKPESIKVT
B5 gave a mutation enrichment score [1, 9] of 4, a mutation enrichment score [7, 10] of 6 and a mutation enrichment score [2, 10] of 6.

B6: H2921R H2921R (peptide)
chain: TRLLRKQAEEVNTEWEKLNLRSADWQRKIDETLERLQELQE
In the case of B6, the mutation enrichment score [1, 13] is reported as -6 and the mutation enrichment score ([5]; number of wild-type / mutant comparisons summed (bounds the score): 12) is reported as -3.

B7: I241T I241T (peptide)
chain: ISLAFYNGLWAYDGWNQLNYTTEELRNPYRNLPLAIIIGIP
For B7, the mutation enrichment score [1, 9] was 2.4 and the mutation enrichment score ([4]; paper call: no_effect) was -1.

B8: E671G E671G (peptide)
chain: GWIAILGAIWLLILADIHDFGIILHRVEWATLLFFAALFVL
B8 gave a mutation enrichment score [1, 9] of -3 and a mutation enrichment score ([4]; paper call: no_effect) of -4.

B9: E671V E671V (peptide)
chain: B8 chain with G21V
Work on B9 yielded a mutation enrichment score [1, 9] of -3 and a mutation enrichment score ([4]; paper call: no_effect) of -2.4.

B10: C150S C150S (peptide)
chain: SNCKQVIGTGSFFPKGEDFYSVTCHETKFAKHCVKCNKAIT
B10 gave a mutation enrichment score [1, 9] of 0.

B11: T3016M T3016M (peptide)
chain: ERERCDGGLPGNTHLLPLRAMDFEVLSTKFEMQDLCFLGPF
For B11, the mutation enrichment score [1, 9] was 5, the mutation enrichment score [7, 14] was 1.7 and the mutation enrichment score [2, 14] was 4.9.

B12: Y232C Y232C (peptide)
chain: EGAQLSVGAISLAFYNGLWACDGWNQLNYITEELRNPYRNL
In the case of B12, the mutation enrichment score [1, 9] is reported as -1.6 and the mutation enrichment score ([4]; paper call: no_effect) is reported as -2.

B13: S305G S305G (peptide)
chain: TAAANNNFVNFGVGDLNAVQGPGIPQSNSGVSTLHGIRAW
B13 was tested, and the mutation enrichment score [6, 12] was 0.17.

B14: C153Y C153Y (peptide)
chain: KQVIGTGSFFPKGEDFYCVTYHETKFAKHCVKCNKAITSGG
In the case of B14, the mutation enrichment score [1, 9] is reported as 0.

B15: V1867M V1867M (peptide)
chain: IPFEKSKVLFTLEELDEFTFMDETDQQAVPDVTRIGPSQEK
With B15 the mutation enrichment score [1, 9] was -2 and the mutation enrichment score ([4]; paper call: no_effect) was -5.

B16: T180I T180I (peptide)
chain: EGTLTVEAPMPKLATQSNEIIIPVTFESRAQLGGPEAAKSD
For B16, the mutation enrichment score [6, 12] was -2 and the mutation enrichment score [8] was -1.

B17: R404W R404W (peptide)
chain: VLAQLEEIEKERDQAIQSRDWIQLQYSQSLIEKDQYRKQVR
Work on B17 yielded a mutation enrichment score [1, 9] of 5 and a mutation enrichment score [2, 9] of 3.

B18: V630I V630I (peptide)
chain: ARRCSVTSMESTVSSGTQTTIQDDPEQFEVIKQQKEIIEHG
For B18, the mutation enrichment score [1, 9] was 0.

B19: D3555V D3555V (peptide)
chain: ERLQFETADDEDFIWVQENIVEIILQLQKLTGQQGEEPSLV
For B19, the mutation enrichment score [1, 9] was -1.

B20: L674I L674I (peptide)
chain: AILGAIWLLILADIHDFEIIIHRVEWATLLFFAALFVLMEA
For B20, the mutation enrichment score [1, 9] was -0.18, the mutation enrichment score ([4]; paper call: no_effect) was 0.016 and the mutation enrichment score [7, 9] was 1.1. For the same binder, the mutation enrichment score [2, 9] was 2.9.

B21: L674V L674V (peptide)
chain: B20 chain with I21V
With B21 the mutation enrichment score [1, 9] was -3 and the mutation enrichment score ([4]; paper call: no_effect) was -4.

B22: T196I T196I (peptide)
chain: SPFEDLNARRVYMQSQANQIIFGQPGLDIQSRSMEYVQRQI
With B22 the mutation enrichment score [6, 12] was -4.

B23: S184N S184N (peptide)
chain: GAPGGFVHSAAAAAAAAAAANSPVYVPTTRVGSMLPGLPYH
B23 gave a mutation enrichment score [1, 9] of -1.

B24: D299G D299G (peptide)
chain: SPAQPATAAANNNFVNFGVGGLNAVQSPGIPQSNSGVSTLH
With B24 the mutation enrichment score [6, 12] was -3.

B25: L1797P L1797P (peptide)
chain: PRAVPSNIDKMRHDVGEFPVPFFGSNDYLWTHQARVFPYME
B25 was tested, and the mutation enrichment score ([6]; number of wild-type / mutant comparisons summed (bounds the score): 18, paper call: diminished) was -7.9.

B26: T417I T417I (peptide)
chain: PAPLCHSDDYVHISLPQATVIPPRKEERMDSARPCLHRQHH
Binder B26 has a mutation enrichment score [1, 9] of 5.7, a mutation enrichment score ([4]; paper call: no_effect) of 5.8 and a mutation enrichment score [5, 11] of 2.8. For the same binder, the mutation enrichment score [7, 9] was 5.8 and the mutation enrichment score [2, 9] was 5.1.

B27: D329G D329G (peptide)
chain: EQMRKIALESEGRPEEQMESGNCSGGDDDWTHLSSKEVDPS
B27 gave a mutation enrichment score [1, 9] of 2, a mutation enrichment score [7, 9] of 3 and a mutation enrichment score [2, 9] of 5.3.

B28: V911I V911I (peptide)
chain: KSEAGVEVKKEVGVSITGTTIREERFEVLHGREAKVTETAR
Work on B28 yielded a mutation enrichment score [1, 13] of -6.1, a mutation enrichment score ([4]; paper call: no_effect) of -4 and a mutation enrichment score [7, 13] of -7.5. The mutation enrichment score [2, 13] was -8.9.

B29: P485L P485L (peptide)
chain: SGFRQGGASQSDKTPEELFHLLGADSQV
For B29, the mutation enrichment score [1, 9] was 5.

B30: R485P R485P (peptide)
chain: QGPYENRTVFETLDIGWQLLPIFPKEMLKRIPQSTLSEFYP
B30 showed a mutation enrichment score [1, 10] of 6, a mutation enrichment score ([4]; paper call: enhanced) of 6 and a mutation enrichment score [5, 11] of 3. For the same binder, the mutation enrichment score [7, 10] was 6 and the mutation enrichment score [2, 9] was 5.

B31: N294H N294H (peptide)
chain: YPAGPSPAQPATAAANNNFVHFGVGDLNAVQSPGIPQSNSG
In the case of B31, the mutation enrichment score [6, 12] is reported as -3.

B32: R1582W R1582W (peptide)
chain: VNEILRSGTCTRDESSVQSSWSERGLVEEEWVIVSDEEIEE
B32 was tested, and the mutation enrichment score [1, 15] was -6 and the mutation enrichment score [2, 15] was -6.

B33: R1582Q R1582Q (peptide)
chain: B32 chain with W21Q
For B33, the mutation enrichment score [1, 9] was 0.48, the mutation enrichment score [7, 9] was 1.2 and the mutation enrichment score [2, 9] was 0.79.

B34: R137W R137W (peptide)
chain: YRPVKVRGCFDHSKELYMMPWTMVDPVREAREGGLISSSTQ
B34 showed a mutation enrichment score [1, 10] of 6, a mutation enrichment score [7, 10] of 6 and a mutation enrichment score [2, 10] of 6.

B35: W679C W679C (peptide)
chain: IWLLILADIHDFEIILHRVECATLLFFAALFVLMEALAHLH
Binder B35 has a mutation enrichment score [1, 9] of -3 and a mutation enrichment score ([4]; paper call: no_effect) of -4.

B36: W679R W679R (peptide)
chain: B35 chain with C21R
Work on B36 yielded a mutation enrichment score [1, 9] of -3, a mutation enrichment score ([4]; paper call: no_effect) of -2.8 and a mutation enrichment score [5, 11] of 0.27. For the same binder, the mutation enrichment score [7, 9] was 3.6.

B37: S33F S33F (peptide)
chain: AMEPDRKAAVSHWQQQSYLDFGIHSGATTTAPSLSGKGNPE
In the case of B37, the mutation enrichment score [6, 12] is reported as 5.

B38: R3070C R3070C (peptide)
chain: ASSDTPMDPVTFIQTLPSDLCRSVLEDMEDSVLAVMPPDIA
Binder B38 has a mutation enrichment score [6, 12] of 3.8.
